Results taken from paper PMC9911399, “Two distinct binding modes provide the RNA-binding protein RbFox with extraordinary sequence specificity”.
Residue numbers refer to the chain shown, from its start. The list shows a part of the results.

T1: RBFOX1 RRM (Homo sapiens, UniProt Q9NWB1 109-208)
T1 sequence: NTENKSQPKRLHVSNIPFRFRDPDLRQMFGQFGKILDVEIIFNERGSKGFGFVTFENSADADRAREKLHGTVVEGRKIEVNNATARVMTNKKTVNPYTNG

B1: CCUAUUG (DNA:RNA)
RNA: GGGAGACCGGAAUUCAGAUUGUCCCCUAUUGUUAAAUCCCGUCGUAGCCACCA
DNA 1: CAATCTGAATTCCGGTCTCCC
DNA 2: TGGTGGCTACGACGGGATT
B2: UCUAAGU (DNA:RNA)
RNA: B1 RNA with C25U, U29A, U30G, G31U
DNA 1: CAATCTGAATTCCGGTCTCCC
DNA 2: TGGTGGCTACGACGGGATT
B3: UAGAUUA (DNA:RNA)
RNA: B1 RNA with C25U, C26A, U27G, G31A
DNA 1: CAATCTGAATTCCGGTCTCCC
DNA 2: TGGTGGCTACGACGGGATT
B4: CUACAAC (DNA:RNA)
RNA: B1 RNA with C26U, U27A, A28C, U29A, U30A, G31C
DNA 1: CAATCTGAATTCCGGTCTCCC
DNA 2: TGGTGGCTACGACGGGATT
B5: UCUCUCU (DNA:RNA)
RNA: B1 RNA with C25U, A28C, U30C, G31U
DNA 1: CAATCTGAATTCCGGTCTCCC
DNA 2: TGGTGGCTACGACGGGATT
B6: UGGCUAG (DNA:RNA)
RNA: B1 RNA with C25U, C26G, U27G, A28C, U30A
DNA 1: CAATCTGAATTCCGGTCTCCC
DNA 2: TGGTGGCTACGACGGGATT
B7: GCAGACG (DNA:RNA)
RNA: B1 RNA with C25G, U27A, A28G, U29A, U30C
DNA 1: CAATCTGAATTCCGGTCTCCC
DNA 2: TGGTGGCTACGACGGGATT
B8: AAUUCCA (DNA:RNA)
RNA: B1 RNA with C25A, C26A, A28U, U29C, U30C, G31A
DNA 1: CAATCTGAATTCCGGTCTCCC
DNA 2: TGGTGGCTACGACGGGATT
B9: ACCGCGA (DNA:RNA)
RNA: B1 RNA with C25A, U27C, A28G, U29C, U30G, G31A
DNA 1: CAATCTGAATTCCGGTCTCCC
DNA 2: TGGTGGCTACGACGGGATT
B10: UUUGUAA (DNA:RNA)
RNA: B1 RNA with C25U, C26U, A28G, U30A, G31A
DNA 1: CAATCTGAATTCCGGTCTCCC
DNA 2: TGGTGGCTACGACGGGATT
B11: CGUGUCA (DNA:RNA)
RNA: B1 RNA with C26G, A28G, U30C, G31A
DNA 1: CAATCTGAATTCCGGTCTCCC
DNA 2: TGGTGGCTACGACGGGATT
B12: AGAAUGU (DNA:RNA)
RNA: B1 RNA with C25A, C26G, U27A, U30G, G31U
DNA 1: CAATCTGAATTCCGGTCTCCC
DNA 2: TGGTGGCTACGACGGGATT
B13: GUUGCAU (DNA:RNA)
RNA: B1 RNA with C25G, C26U, A28G, U29C, U30A, G31U
DNA 1: CAATCTGAATTCCGGTCTCCC
DNA 2: TGGTGGCTACGACGGGATT
B14: AGCCGUA (DNA:RNA)
RNA: B1 RNA with C25A, C26G, U27C, A28C, U29G, G31A
DNA 1: CAATCTGAATTCCGGTCTCCC
DNA 2: TGGTGGCTACGACGGGATT
B15: UUUUUAG (DNA:RNA)
RNA: B1 RNA with C25U, C26U, A28U, U30A
DNA 1: CAATCTGAATTCCGGTCTCCC
DNA 2: TGGTGGCTACGACGGGATT
B16: GAACUGC (DNA:RNA)
RNA: B1 RNA with C25G, C26A, U27A, A28C, U30G, G31C
DNA 1: CAATCTGAATTCCGGTCTCCC
DNA 2: TGGTGGCTACGACGGGATT
B17: AUCGUGC (DNA:RNA)
RNA: B1 RNA with C25A, C26U, U27C, A28G, U30G, G31C
DNA 1: CAATCTGAATTCCGGTCTCCC
DNA 2: TGGTGGCTACGACGGGATT
B18: AUGCCUC (DNA:RNA)
RNA: B1 RNA with C25A, C26U, U27G, A28C, U29C, G31C
DNA 1: CAATCTGAATTCCGGTCTCCC
DNA 2: TGGTGGCTACGACGGGATT
B19: GGCCGCG (DNA:RNA)
RNA: B1 RNA with C25G, C26G, U27C, A28C, U29G, U30C
DNA 1: CAATCTGAATTCCGGTCTCCC
DNA 2: TGGTGGCTACGACGGGATT
B20: CAGCUCC (DNA:RNA)
RNA: B1 RNA with C26A, U27G, A28C, U30C, G31C
DNA 1: CAATCTGAATTCCGGTCTCCC
DNA 2: TGGTGGCTACGACGGGATT
B21: CAUAUCU (DNA:RNA)
RNA: B1 RNA with C26A, U30C, G31U
DNA 1: CAATCTGAATTCCGGTCTCCC
DNA 2: TGGTGGCTACGACGGGATT
B22: UUCUCUA (DNA:RNA)
RNA: B1 RNA with C25U, C26U, U27C, A28U, U29C, G31A
DNA 1: CAATCTGAATTCCGGTCTCCC
DNA 2: TGGTGGCTACGACGGGATT
B23: UUUGUAG (DNA:RNA)
RNA: B1 RNA with C25U, C26U, A28G, U30A
DNA 1: CAATCTGAATTCCGGTCTCCC
DNA 2: TGGTGGCTACGACGGGATT
B24: CCCUGAA (DNA:RNA)
RNA: B1 RNA with U27C, A28U, U29G, U30A, G31A
DNA 1: CAATCTGAATTCCGGTCTCCC
DNA 2: TGGTGGCTACGACGGGATT
B25: UCACGAC (DNA:RNA)
RNA: B1 RNA with C25U, U27A, A28C, U29G, U30A, G31C
DNA 1: CAATCTGAATTCCGGTCTCCC
DNA 2: TGGTGGCTACGACGGGATT
B26: CUCAAGA (DNA:RNA)
RNA: B1 RNA with C26U, U27C, U29A, U30G, G31A
DNA 1: CAATCTGAATTCCGGTCTCCC
DNA 2: TGGTGGCTACGACGGGATT
B27: CCCGUUC (DNA:RNA)
RNA: B1 RNA with U27C, A28G, G31C
DNA 1: CAATCTGAATTCCGGTCTCCC
DNA 2: TGGTGGCTACGACGGGATT
B28: GAGAGGA (DNA:RNA)
RNA: B1 RNA with C25G, C26A, U27G, U29G, U30G, G31A
DNA 1: CAATCTGAATTCCGGTCTCCC
DNA 2: TGGTGGCTACGACGGGATT
B29: UACUGGG (DNA:RNA)
RNA: B1 RNA with C25U, C26A, U27C, A28U, U29G, U30G
DNA 1: CAATCTGAATTCCGGTCTCCC
DNA 2: TGGTGGCTACGACGGGATT
B30: UCACGGG (DNA:RNA)
RNA: B1 RNA with C25U, U27A, A28C, U29G, U30G
DNA 1: CAATCTGAATTCCGGTCTCCC
DNA 2: TGGTGGCTACGACGGGATT
B31: CAGGCAU (DNA:RNA)
RNA: B1 RNA with C26A, U27G, A28G, U29C, U30A, G31U
DNA 1: CAATCTGAATTCCGGTCTCCC
DNA 2: TGGTGGCTACGACGGGATT

Target: T1, RBFOX1 RRM
Assay: EMSA; HiTS-Eq, 1 nM pool, 10 min; buffer printed only for the single-RNA assays: 10 mM Tris pH 7.5, 150 mM NaCl, 3.4 mM EDTA, 0.001% NP-40, 30 C
Conditions: tags: His6 N-terminal (pET28a); label: 5' 32P
Method in brief: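 A pool of RNA with 7 randomized nucleotides, 5′-radiolabelled and with DNA-annealed flanks, was equilibrated at 1 nM for 10 min in 50 µL with purified RbFox RRM, wild type or mutant, across increasing protein concentrations. Free RNA was separated by 8% native PAGE, excised, reverse-transcribed, barcoded by PCR and sequenced. Relative association constants were obtained from read-count changes of each RNA species versus the control reaction and normalised to the cognate motif.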

| Binder | binding signal |
| --- | --- |
| B1 | 0.00577 KA relative to UGCAUGU |
| B2 | 0.00842 KA relative to UGCAUGU |
| B3 | 0.00551 KA relative to UGCAUGU |
| B4 | 0.000329 KA relative to UGCAUGU |
| B5 | 0.00409 KA relative to UGCAUGU |
| B6 | 0.0286 KA relative to UGCAUGU |
| B7 | 0.00979 KA relative to UGCAUGU |
| B8 | 0.00102 KA relative to UGCAUGU |
| B9 | 0.00595 KA relative to UGCAUGU |
| B10 | 0.0114 KA relative to UGCAUGU |
| B11 | 0.00921 KA relative to UGCAUGU |
| B12 | 0.0214 KA relative to UGCAUGU |
| B13 | 0.0231 KA relative to UGCAUGU |
| B14 | 0.00251 KA relative to UGCAUGU |
| B15 | 0.0201 KA relative to UGCAUGU |
| B16 | 0.0144 KA relative to UGCAUGU |

| Binder | binding signal |
| --- | --- |
| B17 | 0.012 KA relative to UGCAUGU |
| B18 | 0.0104 KA relative to UGCAUGU |
| B19 | 0.0132 KA relative to UGCAUGU |
| B20 | 0.00767 KA relative to UGCAUGU |
| B21 | 0.00324 KA relative to UGCAUGU |
| B22 | 0.00444 KA relative to UGCAUGU |
| B23 | 0.0166 KA relative to UGCAUGU |
| B24 | 0.00426 KA relative to UGCAUGU |
| B25 | 0.00315 KA relative to UGCAUGU |
| B26 | 0.00602 KA relative to UGCAUGU |
| B27 | 0.0176 KA relative to UGCAUGU |
| B28 | 0.00431 KA relative to UGCAUGU |
| B29 | 0.00793 KA relative to UGCAUGU |
| B30 | 0.00744 KA relative to UGCAUGU |
| B31 | 0.0133 KA relative to UGCAUGU |
